# According to ChEMBL document CHEMBL4888484, “Replenishing the malaria drug discovery pipeline: Screening and hit evaluation of the MMV Hit Generation Library 1 (HGL1) against asexual blood stage Plasmodium falciparum ,using a nano luciferase reporter read-out” (2022):
# Screen size: about 150,000 compounds; about 540 (0.36%) showed an effect of 50% or more. The list shows a part of the results.
# Test system: Plasmodium falciparum
# Test: Primary screen in NF54 nanoGlo assay, in single point, at 2uM, 72h; a lower Z score goes with more inhibition
# Assay type: functional, Erythrocyte
# Conditions: timepoint 72 hour
SMILES,% Inhibition,Z score
CN(C)C(=O)Cn1ccc(-c2cccc(-c3ccc(C#N)cc3)c2)n1,-11%,1.02
COC(=O)C12CCCC1CN(Cc1scnc1C)C2 (stereo not drawn),-1%,0.09
CCOC(=O)C1CCN(c2nc(-c3ccccc3Cl)c3c(N)n(C)nc3n2)CC1,0%,0.07
O=C(c1cc2n(n1)CCCO2)N1CC[C@H](Oc2cnc3ccccc3n2)C1,0%,-0.05
CC(=O)N1N=C(c2cccc(Cl)c2)OC12CCCC2,-7%,1.16
CC(C)N1CCC2(CC1)N=C(c1ccccc1O)C[C@@H](c1ccccc1O)N2,-16%,1.81
Cc1ccc(NC(=O)[C@@H]2CCc3cc(F)ccc32)c(C)n1,2%,-0.34
CCNc1ncc(C(=O)N2CCCC[C@@H]2CCN2CCN(C)CC2)cn1,-2%,0.33
CN(CCc1ncon1)C(=O)c1cn2cc(Cl)cnc2n1,-8%,1.16
CCOCc1nc2c(c(N(C)Cc3ccon3)n1)CCNCC2,-12%,1.27
CC(NC(=O)C1CCCN(C(=O)c2cccs2)C1)c1cccc(Cl)c1 (stereo not drawn),9%,-1.18
Cc1cc(CNc2cccc3ccccc23)no1,-7%,0.68
NCCOc1cccc(C(=O)N[C@H]2CCCC[C@@H]2c2ccccc2)c1,-11%,1.76
CC(C)CC(=O)Nc1nc(C(=O)N2CCCC(C)(C)C2)cs1,-3%,0.4
Cc1oncc1C(=O)N1CCN(c2ccc(-n3cncn3)nn2)CC1,10%,-1.21
CCN(C1CCN(C)CC1)C1CN(C(=O)COCc2ccccc2)C1,-7%,0.93
CC(C)N(Cc1c(-c2ccccc2)noc1N1CCCCC1)C(=O)c1ccc2c(c1)OCO2,14%,-1.74
CC(CCS(C)(=O)=O)NC(=O)NC1CCCC(C2CC2)C1 (stereo not drawn),2%,-0.36
O=C(CCOc1ccccc1)Nc1cccnc1,-11%,1.35
Cc1ccc(C)c(NC(=O)C[C@H]2Cn3ncc(-c4ccccc4)c3NC2=O)c1,-5%,0.99
CC[C@H](C)c1csc(NC(=O)NCCCOC)n1,-12%,1.5

SMILES,% Inhibition,Z score
CC(C)N(C(=O)c1nc(-c2cnccn2)no1)C(C)C,-8%,1.19
CC(=O)c1c[nH]c(C(=O)N2CCO[C@H](c3ccc(Br)cc3)C2)c1,1%,-0.15
CC(C)C(NC(=O)c1ccco1)C(=O)NCC1CCCO1 (stereo not drawn),-3%,0.28
CCC[C@@H](CCO)CNC(=O)c1c(C(C)C)nn(C)c1Cl,-4%,0.8
c1ccc(N2CCN(Cc3cccc(OC4CCNCC4)c3)CC2)nc1,26%,-3.59
C[C@@H](CNc1ncccc1C#N)c1nc2ccccc2o1,0%,-0.07
O=C(O)C1CCCC(C(=O)NCCC2CCCO2)C1 (stereo not drawn),-8%,1.14
CN1CCOC(CN(C(=O)C2CCOC2)c2nccs2)C1 (stereo not drawn),-8%,0.88
COc1ccsc1S(=O)(=O)N[C@H](c1ccncc1)C(C)C,-5%,0.83
Cc1cc(Br)cc(C(=O)N(C)CC(C)(CO)CO)c1,1%,-0.14
CC(C)c1ccc2c(c1)N=C(c1cccs1)N=C(c1cccs1)N2,5%,-0.6
CCc1cc(C(=O)NC(CC)[C@H]2C[C@@H](O)C2)[nH]n1 (stereo partly drawn),-10%,1.26
CCc1nc2cc(C(=O)NC[C@H]3CCS(=O)(=O)C3)cc(NC(=O)c3ccccc3OC)c2n1C,-9%,1.74
Cc1cc(C(=O)N[C@@H](C)C2(S(C)(=O)=O)CC2)n2nc(C)cc2n1,3%,-0.44
COc1ccc2c(c1)c(CN1CCC[C@@](F)(C(=O)NCc3ccncc3)C1)cn2C,1%,-0.24
CC(CNC(=O)NC1COc2cc(F)cc(F)c21)c1nccs1 (stereo not drawn),-2%,0.15
Cc1cccc(N2CCN(C(=O)c3ccccc3Oc3ccccc3)CC2)c1C,-4%,0.77
COCCN(CC1CC1)[C@@H](C)C(=O)Nc1ccc(F)cc1,-3%,0.44
Cc1cc2n(n1)CCCN2CC(=O)Nc1ccc(C)c(Cl)c1,-13%,2.27
CCCCNC(=O)c1coc(CN2C(=O)COc3ccc(C(=O)COc4ccccc4C)cc32)n1,-7%,1.2
O=C(O)CCc1cc2n(n1)CCCN(Cc1cnn(-c3cccc(F)c3)c1)C2,-4%,0.67

SMILES,% Inhibition,Z score
CN(C(=O)Cc1ccc2c(c1)OCO2)c1ncccc1F,3%,-0.35
Cc1nc(CCC(=O)Nc2nc3ncccn3n2)oc1-c1ccccc1,-10%,1.82
CCOC(=O)c1cn([C@H](C(N)=O)C(C)C)cc(Oc2ccccc2)c1=O,-8%,0.83
CCCCc1nc(CN2CCC([C@]3(Cc4ccc(F)cc4)NC(=O)N(C4CCCC4)C3=O)CC2)c[nH]1,-11%,1.33
CC[C@@H](C(N)=O)N1CCN(Cc2nc(-c3cccs3)no2)CC1,35%,-5.01
O=C(COc1ccc(-c2nc3ccccc3s2)cc1)Nc1ccc2c(c1)OCO2,-4%,0.44
Cc1ccc(N2C[C@@H](C(=O)NCCNc3ncccn3)CC2=O)cc1,-6%,1.07
O=C(c1ccccc1OC[C@H]1CCCO1)N(CCO)Cc1cccnc1,-4%,0.46
Cc1ccc(NC(=O)[C@@H]2OCC(=O)N(C)[C@@H]2c2cnn(C)c2)c(C)n1,-2%,0.41
COc1ccc2c(c1)N1CCN(CC(=O)N3CCOCC3)CC1C(C(=O)Nc1ccccc1)C2 (stereo not drawn),2%,-0.23
N[C@@H](CCc1ccc2c(c1)OCCO2)c1ccccc1,-19%,2.22
Cc1ccc(C(=O)Nc2ccc3c(c2)cc(C(=O)NCc2ccncc2)n3Cc2cccc(F)c2)cc1C,7%,-1.12
O=C(NC[C@H]1OC[C@@H](NCc2cccnc2)[C@@H]1O)c1ccc(F)cc1,-7%,0.99
CC(C)c1cc(CN(Cc2cc(C(C)C)c(O)c(C(C)C)c2)C2CCCCC2)cc(C(C)C)c1O,95%,-12.83
O=C(N[C@H]1C[C@H]2OCC[C@@H]12)c1ccncc1O,-5%,0.84
CCN(CC)c1nc(NCc2ccc(OC)cc2)c2cnn(C)c2n1,3%,-0.52
Cc1nn(C2CCOCC2)c(C)c1C(=O)Nc1nnnn1C1CC1,8%,-1.3
O=C(CC[C@H]1CCO1)N1CCN(C(=O)c2cccc(F)c2)CC1,6%,-0.89
CCN(CC)c1onc(-c2ccccc2)c1CN(CC1CC1)C[C@H](O)COC(C)C,-8%,1.04
O=C(CCCc1ccccc1)N1CC[C@H](Cc2noc(C3CC3)n2)C1,-1%,0.12
CCN(C(=O)Cn1c(=O)n(CCCS(=O)(=O)C2CCCCC2)c(=O)c2ccccc21)c1cccc(C)c1,-3%,0.45

SMILES,% Inhibition,Z score
O=C(NCC1([C@H](O)c2ccccc2)CC1)c1cc(N2CCCC2)ccn1,-4%,0.48
COc1ccc(NC(=O)CC(C)(C)C)c(OC)c1,0%,-0.01
CCc1nc(CN2C(=O)[C@@H]3CCCCN3C2=O)cs1,10%,-1.67
Cc1csc(C(NC(C)CC2CC2)C2CC2)n1 (stereo not drawn),-9%,0.87
CC(C)(C)NC(=O)CNC(=O)c1cccc(F)c1,37%,-5.05
O=C(C1=CCCCO1)N1CCOC2CCCCC21 (stereo not drawn),30%,-3.42
Cc1oc(-c2ccccc2)nc1CN1CCOc2cc(N(C)C)ccc21,-6%,0.51
CC1(C)C[C@H](O)c2cccc(NS(=O)(=O)c3cccs3)c2O1,1%,-0.17
CCC[C@@H](CCc1ccccc1)NC(=O)c1conc1C(C)(C)N,-9%,1.61
CC1CN(C(=O)CNC(=O)c2cccs2)C(c2ccccc2)CO1 (stereo not drawn),4%,-0.83
CN(CC1(CO)CC1)c1nccc(N2CCN[C@@H]3CS(=O)(=O)C[C@@H]32)n1,1%,-0.16
CC[C@H](C)NC(=O)c1nc(S(C)(=O)=O)ncc1Cl,-4%,0.68
Cc1c(Cl)cncc1NC(=O)N1CCC(OC2CCC2)CC1,-5%,0.61
Cc1nnc(-c2cccc(NC(=O)C3CCN(C(=O)C4=CCCCC4)CC3)c2)s1,-8%,0.72
CCN(CC1CCOCC1)C(=O)C1=C(C)NC(=O)N[C@H]1C,2%,-0.35
O=C(NC(c1ccccc1)c1ccccc1)c1ccc(Oc2nccs2)cc1,-3%,0.6
Cc1cc(C(=O)n2nc(N)cc2C2CCOCC2)c(C)n1C(C)C,5%,-0.87
CCc1nc2ccc(C(=O)N3CCC4(CC3)OC(=O)c3ccccc34)cc2s1,-5%,0.99
Cc1cnc(C(=O)N[C@H]2CCC23CCOCC3)cn1,20%,-2.59
CC(C)NS(=O)(=O)c1ccc2c(c1)nc(-c1cnc(C(C)C)nc1)n2C(C)C,0%,0.02
Cc1cc(C)n(CCC(=O)N2CC[C@@H]3OCc4cccc(c4)Oc4cccc(c4)CCC(=O)N(C)CC(=O)N[C@@H]3C2)n1,-2%,0.3
